Assay in all cases: universal protein binding microarray (PBM)
What all share (details): transcription factors of Arabidopsis thaliana; high values mean tight binding; most listed sequences are background and not binding sites; double strand, one strand shown

Experiment [1] concerns the target T1, GST-ANAC055(1-171) (UniProt Q9LDY8).
T1 sequence: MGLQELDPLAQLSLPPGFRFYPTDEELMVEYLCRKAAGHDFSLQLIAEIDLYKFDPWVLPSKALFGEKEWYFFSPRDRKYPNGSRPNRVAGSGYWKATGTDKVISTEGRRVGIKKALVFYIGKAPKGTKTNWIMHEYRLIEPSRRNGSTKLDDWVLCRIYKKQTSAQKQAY

For experiment [2], the target named is T2, GST-NAP(1-166) (UniProt O49255).
T2 sequence: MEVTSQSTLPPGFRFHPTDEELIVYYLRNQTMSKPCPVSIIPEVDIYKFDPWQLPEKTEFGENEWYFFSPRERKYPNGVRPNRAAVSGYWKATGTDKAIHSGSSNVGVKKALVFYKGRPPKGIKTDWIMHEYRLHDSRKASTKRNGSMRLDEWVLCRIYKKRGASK

Experiment [3] concerns the target T3, GST-NST2(1-184) (UniProt Q9M274).
T3 sequence: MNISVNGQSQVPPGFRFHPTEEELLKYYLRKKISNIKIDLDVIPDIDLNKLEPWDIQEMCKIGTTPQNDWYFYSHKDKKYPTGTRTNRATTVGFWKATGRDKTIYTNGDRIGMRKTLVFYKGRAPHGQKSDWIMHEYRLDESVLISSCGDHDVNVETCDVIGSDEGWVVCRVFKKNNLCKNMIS

For experiment [4], the target named is T4, GST-VND7 NAC domain (UniProt Q9C8W9).
T4 sequence: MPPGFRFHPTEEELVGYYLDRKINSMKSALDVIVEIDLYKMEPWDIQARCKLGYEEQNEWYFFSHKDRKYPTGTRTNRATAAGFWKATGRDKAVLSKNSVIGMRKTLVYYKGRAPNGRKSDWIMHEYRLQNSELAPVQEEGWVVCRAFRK

In experiment [5] the target is T5, GST-VOZ2 (Arabidopsis thaliana) (UniProt Q9SLB9).
T5 sequence: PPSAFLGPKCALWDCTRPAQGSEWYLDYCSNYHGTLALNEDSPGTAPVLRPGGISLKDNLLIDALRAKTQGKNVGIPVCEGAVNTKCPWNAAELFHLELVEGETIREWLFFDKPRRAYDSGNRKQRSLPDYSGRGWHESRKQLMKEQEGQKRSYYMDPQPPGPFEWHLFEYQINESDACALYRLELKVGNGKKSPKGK

Experiment [6] has as its target GST-WRKY1(266-371) (UniProt Q9SI37).
Chain of UniProt Q9SI37 (Q9SI37 266-371): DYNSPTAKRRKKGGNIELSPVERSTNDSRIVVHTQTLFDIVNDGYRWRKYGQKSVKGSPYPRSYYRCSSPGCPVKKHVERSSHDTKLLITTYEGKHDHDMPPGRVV
Experiment [7] addresses GST-NTL6(1-168) (UniProt Q9SCK6).
Experiment [8] addresses T6, GST-ANAC092(1-285) full length (UniProt Q9FKA0).
T6 sequence: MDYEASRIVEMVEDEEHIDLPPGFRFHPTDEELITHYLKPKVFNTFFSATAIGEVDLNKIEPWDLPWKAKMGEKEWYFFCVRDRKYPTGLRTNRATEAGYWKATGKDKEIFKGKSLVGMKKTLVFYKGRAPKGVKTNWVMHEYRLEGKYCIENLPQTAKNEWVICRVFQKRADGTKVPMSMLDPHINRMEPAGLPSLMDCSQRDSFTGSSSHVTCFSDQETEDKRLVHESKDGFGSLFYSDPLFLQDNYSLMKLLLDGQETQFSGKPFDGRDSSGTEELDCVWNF

The target of experiment [9] is T7, GST-NTL8 NAC domain (UniProt Q9XIN7).
T7 sequence: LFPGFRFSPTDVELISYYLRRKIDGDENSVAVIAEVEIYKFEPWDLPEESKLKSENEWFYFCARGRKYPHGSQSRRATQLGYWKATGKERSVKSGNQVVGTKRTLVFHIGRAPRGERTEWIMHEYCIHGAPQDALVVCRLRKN

Experiment [10] deals with T8, GST-ANAC019 NAC domain (UniProt Q9C932).
T8 sequence: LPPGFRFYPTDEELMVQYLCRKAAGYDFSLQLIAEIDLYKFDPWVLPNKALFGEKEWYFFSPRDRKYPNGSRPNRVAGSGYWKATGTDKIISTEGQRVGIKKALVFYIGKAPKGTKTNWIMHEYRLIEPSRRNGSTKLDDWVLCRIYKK

Experiment [11] deals with T9, GST-ANAC092(1-176) (UniProt Q9FKA0).
T9 sequence: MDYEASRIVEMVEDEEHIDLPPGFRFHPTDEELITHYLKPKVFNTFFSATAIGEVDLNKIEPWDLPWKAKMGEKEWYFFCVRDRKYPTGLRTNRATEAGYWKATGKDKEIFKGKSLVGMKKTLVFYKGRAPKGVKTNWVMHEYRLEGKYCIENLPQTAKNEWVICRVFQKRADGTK

Experiment [12] deals with T10, GST-ATAF1 NAC domain (UniProt Q39013).
T10 sequence: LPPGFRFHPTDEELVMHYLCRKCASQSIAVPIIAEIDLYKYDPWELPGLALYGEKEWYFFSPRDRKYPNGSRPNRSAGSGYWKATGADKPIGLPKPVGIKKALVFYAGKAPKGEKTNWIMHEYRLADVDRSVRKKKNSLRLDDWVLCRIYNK

This is a selection; strong and weak results do not stand in their true shares. For some of these results: At the low end of the ranking, values are background and their order means little. This is one part of the list. For some of these results: The source does not settle which construct or isoform was used.

As to AAGGTAAG, the binding signal in experiment [1] was 0.0499 E-score; in experiment [2], -0.189 E-score; in experiment [3], 0.144 E-score; in experiment [4] it was -0.032 E-score; in experiment [5], 0.0408 E-score; in experiment [6], -0.0535 E-score.

Take ACGCTACT: the binding signal came to 0.0316 E-score in [7]; 0.425 E-score in experiment [8]; 0.0894 E-score in experiment [9]; 0.00226 E-score in [4]; 0.215 E-score in [5].

For the sequence CAAAAGTC, the binding signal in experiment [7] is 0.0864 E-score; in experiment [10], -0.0124 E-score; in experiment [2], -0.0405 E-score; in experiment [9], -0.042 E-score; in [4], 0.0349 E-score; in [5], 0.13 E-score.

As to AGTCAAAC, the binding signal in experiment [11] was 0.00993 E-score; in [1], 0.103 E-score; in experiment [12], 0.109 E-score; in experiment [8], 0.0473 E-score; in experiment [2], 0.0582 E-score; in experiment [4], -0.026 E-score. Further, the binding signal in experiment [5] is 0.0304 E-score.

For the sequence TAGCGTGA, the binding signal in experiment [11] is 0.441 E-score; in experiment [7], 0.0555 E-score; in [10], 0.209 E-score; in experiment [8] it was 0.454 E-score; in experiment [2], 0.0225 E-score; in [9], 0.0288 E-score. The binding signal in [4] stood at 0.191 E-score; in experiment [5], 0.115 E-score.

As to ACGTAAAA, the binding signal in [7] is 0.161 E-score; in experiment [2], 0.326 E-score; in experiment [9] it was 0.0957 E-score; in experiment [4], 0.344 E-score; in experiment [5] it was 0.178 E-score.

Turning to ATACGAAA, the binding signal in experiment [10] stood at 0.166 E-score; in [1] it was 0.202 E-score; in experiment [2], 0.251 E-score; in experiment [3], 0.271 E-score; in experiment [9] it was 0.0268 E-score; in [4] it was 0.205 E-score. The binding signal was 0.103 E-score in [5] and -0.0553 E-score in [6].

Regarding GAAGCAAC, the binding signal in [10] is 0.0196 E-score; in [2], 0.00616 E-score; in [9], 0.416 E-score; in [4] it was 0.228 E-score; in experiment [5] it was 0.134 E-score; in experiment [6], -0.00937 E-score.

As to GTCAAAAC, the binding signal was 0.0114 E-score in [11]; 0.0209 E-score in experiment [7]; -0.00644 E-score in experiment [10]; 0.0315 E-score in experiment [1]; 0.178 E-score in experiment [12]; -0.0124 E-score in experiment [3]. The binding signal in experiment [4] was -0.0265 E-score; in experiment [5], 0.146 E-score.

Consider GTGCCGTA, for which the binding signal in experiment [7] is 0.0263 E-score; in [3] it was 0.263 E-score; in experiment [9] it was 0.102 E-score; in [4], 0.453 E-score; in experiment [5], -0.0217 E-score; in [6] it was -0.13 E-score.

For the sequence GTTACGTA, the binding signal in [8] was 0.456 E-score; in experiment [2], 0.483 E-score; in experiment [3], 0.337 E-score; in [9], 0.319 E-score; in [4], 0.477 E-score; in experiment [5] it was -0.0733 E-score. This sequence had a binding signal in [6] of -0.00308 E-score.

In the case of AGACACGC, the binding signal is 0.364 E-score in [11]; -0.0492 E-score in [7]; 0.0909 E-score in experiment [10]; 0.165 E-score in experiment [12]; 0.165 E-score in [4]; 0.0775 E-score in experiment [5].

For the sequence TTACGTAA, the binding signal in experiment [7] came out at 0.171 E-score; in experiment [3], 0.433 E-score; in experiment [9], 0.411 E-score; in experiment [4] it was 0.481 E-score; in experiment [5] it was 0.0304 E-score.

Consider ACGTTTCC, for which the binding signal was 0.343 E-score in experiment [1], 0.359 E-score in [4], 0.0489 E-score in [5] and -0.0571 E-score in [6].

As for CTTACCCC, the binding signal was found to be 0.192 E-score in experiment [11], 0.322 E-score in experiment [7], 0.149 E-score in experiment [4] and 0.198 E-score in experiment [5].

Take CTTCCTTA: the binding signal in experiment [10] is 0.0721 E-score; in [1], 0.0252 E-score; in [12], 0.0435 E-score; in experiment [2], -0.0468 E-score; in experiment [9] it was 0.223 E-score; in experiment [4], -0.0641 E-score. In addition, the binding signal in [5] is -0.0764 E-score.

For AGCGTAAG, the binding signal in [10] was -0.00696 E-score; in experiment [2], -0.00509 E-score; in [3], 0.172 E-score; in [9], 0.0559 E-score; in experiment [4], 0.141 E-score; in [5], 0.136 E-score. This sequence also gave a binding signal in experiment [6] of 0.026 E-score.

TTGACCAA: the binding signal in experiment [7] was -0.0152 E-score; in [10] it was 0.063 E-score; in experiment [12], 0.066 E-score; in experiment [8], 0.226 E-score; in experiment [2], 0.0358 E-score; in experiment [3], -0.0128 E-score. Moreover, the values for the binding signal in experiment [9], in [4] and in experiment [5] were 0.0477 E-score, 0.0251 E-score and 0.0941 E-score, respectively.

For GAAAGGAA, the binding signal in experiment [7] is 0.32 E-score; in experiment [10] it was 0.134 E-score; in [1], 0.168 E-score; in [2], -0.02 E-score; in experiment [4], 0.231 E-score; in [5], 0.0952 E-score.

AGTTTGAC: the binding signal was -0.0156 E-score in experiment [11]; 0.0246 E-score in experiment [8]; -0.106 E-score in experiment [2]; 0.00848 E-score in experiment [3]; -0.0359 E-score in experiment [9]; 0.095 E-score in [4]. For the same sequence, the binding signal in experiment [5] was 0.0273 E-score.

Turning to AAGTTACC, the binding signal in experiment [10] is 0.155 E-score; in experiment [4], 0.0773 E-score; in experiment [5] it was 0.0396 E-score; in experiment [6], -0.206 E-score.

On to ATAACGTG, for which the binding signal in experiment [7] is -0.0148 E-score; in experiment [9] it was -0.0496 E-score; in [4], 0.109 E-score; in [5] it was -0.0286 E-score; in [6], -0.117 E-score.

(Values after publication PMC4081100.)
